# Test results published in the supplement of paper PMC8728848.
# Some of the results follow.
# B1: FBG4 (Homo sapiens), Q96EF6 (protein)
# chain: MGARLSRRRLPADPSLALDALPPELLVQVLSHVPPRSLVTRCRPVCRAWRDIVDGPTVWLLQLARDRSAEGRALYAVAQRCLPSNEDKEEFPLCALARYCLRAPFGRNLIFNSCGEQGFRGWEVEHGGNGWAIEKNLTPVPGAPSQTCFVTSFEWCSKRQLVDLVMEGVWQELLDSAQIEICVADWWGARENCGCVYQLRVRLLDVYEKEVVKFSASPDPVLQWTERGCRQVSHVFTNFGKGIRYVSFEQYGRDVSSWVGHYGALVTHSSVRVRIRLS
# Tests used:
# Assay in all cases: glycan array binding signal (z-score within array); higher = stronger binding
# Conditions in all cases: glycan notation: IUPAC condensed, linker removed
# [1] = target: GlcNAc(b1-4)GlcNAc(b1-4)GlcNAc(b1-4)GlcNAc(b1-4)GlcNAc(b1-4)GlcNAc
# Summary of the method: (§1)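 Negative Z-scores can be read as non-binding. The Z-score is calculated within each array and then averaged across arrays of one protein sequence at different concentrations or buffers and across linkers. Arrays, 3228 in all, were curated from the Consortium for Functional Glycomics database and kept only where the protein sequence was available.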
# [2] = target: GlcNAc(b1-4)[GlcNAc(b1-6)]GalNAc
# Summary of the method: as §1
# [3] = target: GlcNAc(b1-6)Gal(b1-4)GlcNAc
# Summary of the method: as §1
# GlcNAc(b1-6)GalNAc = target: GlcNAc(b1-6)GalNAc
# Summary of the method: as §1
# Kdn(a2-3)Gal(b1-3)GlcNAc = target: Kdn(a2-3)Gal(b1-3)GlcNAc
# Summary of the method: as §1
# Kdn(a2-3)Gal(b1-4)GlcNAc = target: Kdn(a2-3)Gal(b1-4)GlcNAc
# Summary of the method: as §1
# [4] = target: Man(a1-2)Man(a1-2)Man(a1-3)Man
# Summary of the method: as §1
# [5] = target: Man(a1-2)Man(a1-2)Man(a1-3)[Man(a1-2)Man(a1-3)[Man(a1-2)Man(a1-6)]Man(a1-6)]Man(b1-4)GlcNAc(b1-4)GlcNAc
# Summary of the method: as §1
# [6] = target: Man(a1-2)Man(a1-2)Man(a1-3)[Man(a1-2)Man(a1-6)[Man(a1-3)]Man(a1-6)]Man(b1-4)GlcNAc(b1-4)GlcNAc
# Summary of the method: as §1
# [7] = target: Man(a1-2)Man(a1-2)Man(a1-6)[Man(a1-3)]Man
# Summary of the method: as §1
# Man(a1-2)Man(a1-3)Man = target: Man(a1-2)Man(a1-3)Man
# Summary of the method: as §1
# [8] = target: Man(a1-2)Man(a1-3)[Man(a1-2)Man(a1-6)]Man
# Summary of the method: as §1
# [9] = target: Man(a1-2)Man(a1-3)[Man(a1-3)[Man(a1-6)]Man(a1-6)]Man(b1-4)GlcNAc(b1-4)GlcNAc
# Summary of the method: as §1
# [10] = target: Man(a1-2)Man(a1-3)[Man(a1-6)]Man(a1-6)[Man(a1-2)Man(a1-3)]Man(b1-4)GlcNAc(b1-4)GlcNAc
# Summary of the method: as §1
# Man(a1-3)[Man(a1-6)]Man = target: Man(a1-3)[Man(a1-6)]Man
# Summary of the method: as §1
# [11] = target: Man(a1-3)[Man(a1-6)]Man(a1-6)[Man(a1-3)]Man(b1-4)GlcNAc(b1-4)GlcNAc
# Summary of the method: as §1
# [12] = target: Man(a1-3)[Man(a1-6)]Man(b1-4)GlcNAc(b1-4)GlcNAc
# Summary of the method: as §1
# Man(b1-4)GlcNAc = target: Man(b1-4)GlcNAc
# Summary of the method: as §1
# Neu5Ac(a2-3)Gal = target: Neu5Ac(a2-3)Gal
# Summary of the method: as §1
# [13] = target: Neu5Ac(a2-3)Gal(b1-3)GalNAc
# Summary of the method: as §1
# [14] = target: Neu5Ac(a2-3)Gal(b1-3)GalNAc(b1-3)Gal(a1-4)Gal(b1-4)Glc
# Summary of the method: as §1
# [15] = target: Neu5Ac(a2-3)Gal(b1-3)GalNAc(b1-4)[Neu5Ac(a2-3)]Gal(b1-4)Glc
# Summary of the method: as §1
# [16] = target: Neu5Ac(a2-3)Gal(b1-3)GalNAc6S
# Summary of the method: as §1
# [17] = target: Neu5Ac(a2-3)Gal(b1-3)GlcNAc
# Summary of the method: as §1
# [18] = target: Neu5Ac(a2-3)Gal(b1-3)GlcNAc(b1-3)Gal(b1-3)GlcNAc
# Summary of the method: as §1
# [19] = target: Neu5Ac(a2-3)Gal(b1-3)GlcNAc(b1-3)Gal(b1-4)GlcNAc
# Summary of the method: as §1
# [20] = target: Neu5Ac(a2-3)Gal(b1-3)GlcNAc6S
# Summary of the method: as §1
# [21] = target: Neu5Ac(a2-3)Gal(b1-3)[Fuc(a1-4)]GlcNAc
# Summary of the method: as §1
# [22] = target: Neu5Ac(a2-3)Gal(b1-3)[Fuc(a1-4)]GlcNAc(b1-3)Gal(b1-4)[Fuc(a1-3)]GlcNAc
# Summary of the method: as §1
# [23] = target: Neu5Ac(a2-3)Gal(b1-3)[Neu5Ac(a2-3)Gal(b1-4)]GlcNAc
# Summary of the method: as §1
# [24] = target: Neu5Ac(a2-3)Gal(b1-3)[Neu5Ac(a2-6)]GalNAc
# Summary of the method: as §1
# Neu5Ac(a2-3)Gal(b1-4)Glc = target: Neu5Ac(a2-3)Gal(b1-4)Glc
# Summary of the method: as §1
# [25] = target: Neu5Ac(a2-3)Gal(b1-4)GlcNAc
# Summary of the method: as §1
# [26] = target: Neu5Ac(a2-3)Gal(b1-4)GlcNAc(b1-3)Gal(b1-3)GlcNAc
# Summary of the method: as §1
# [27] = target: Neu5Ac(a2-3)Gal(b1-4)GlcNAc(b1-3)Gal(b1-4)GlcNAc
# Summary of the method: as §1
# [28] = target: Neu5Ac(a2-3)Gal(b1-4)GlcNAc(b1-3)Gal(b1-4)GlcNAc(b1-3)Gal(b1-4)GlcNAc
# Summary of the method: as §1
binder,measurement,setting,value
B1,glycan array binding signal (z-score),[1],1.31
same,glycan array binding signal (z-score),[2],-0.527
same,glycan array binding signal (z-score),[3],-0.538
same,glycan array binding signal (z-score),GlcNAc(b1-6)GalNAc,-0.62
same,glycan array binding signal (z-score),Kdn(a2-3)Gal(b1-3)GlcNAc,-0.481
same,glycan array binding signal (z-score),Kdn(a2-3)Gal(b1-4)GlcNAc,-0.448
same,glycan array binding signal (z-score),[4],-0.488
same,glycan array binding signal (z-score),[5],0.115
same,glycan array binding signal (z-score),[6],0.035
same,glycan array binding signal (z-score),[7],-0.346
same,glycan array binding signal (z-score),Man(a1-2)Man(a1-3)Man,-0.412
same,glycan array binding signal (z-score),[8],-0.321
same,glycan array binding signal (z-score),[9],-0.18
same,glycan array binding signal (z-score),[10],0.121
same,glycan array binding signal (z-score),Man(a1-3)[Man(a1-6)]Man,-0.577
same,glycan array binding signal (z-score),[11],0.208
same,glycan array binding signal (z-score),[12],0.275
same,glycan array binding signal (z-score),Man(b1-4)GlcNAc,-0.448
same,glycan array binding signal (z-score),Neu5Ac(a2-3)Gal,-0.451
same,glycan array binding signal (z-score),[13],-0.559
same,glycan array binding signal (z-score),[14],-0.427
same,glycan array binding signal (z-score),[15],-0.377
same,glycan array binding signal (z-score),[16],0.086
same,glycan array binding signal (z-score),[17],-0.533
same,glycan array binding signal (z-score),[18],-0.268
same,glycan array binding signal (z-score),[19],-0.617
same,glycan array binding signal (z-score),[20],0.76
same,glycan array binding signal (z-score),[21],-0.472
same,glycan array binding signal (z-score),[22],-0.341
same,glycan array binding signal (z-score),[23],-0.538
same,glycan array binding signal (z-score),[24],-0.494
same,glycan array binding signal (z-score),Neu5Ac(a2-3)Gal(b1-4)Glc,-0.511
same,glycan array binding signal (z-score),[25],-0.478
same,glycan array binding signal (z-score),[26],-0.278
same,glycan array binding signal (z-score),[27],-0.49
same,glycan array binding signal (z-score),[28],-0.576
